# The supplement of paper PMC12217912
# The list shows a part of the results. Sequences were assembled here from the parent chain. Values near 0.05 are background.
# B1: TEV protease; numbered along this chain (parent)
# chain: MGESLFKGPRDYNPISSSICHLTNESDGHTTSLYGIGFGPFIITNKHLFRRNNGTLVVQSLHGVFKVKDTTTLQQHLVDGRDMIIIRMPKDFPPFPQKLKFREPQREERICLVTTNFQTKSMSSMVSDTSCTFPSGDGIFWKHWIQTKDGQCGSPLVSTRDGFIVGIHSASNFTNTNNYFTSVPKNFMELLTNQEAQQWVSGWRLNADSVLWGGHKVFMVKPEEPFQPVKEATQL
# Variants of: B1
# Assay: raw area under fraction-flipped curve 0-4 h after induction (AUC4h, not background-subtracted), DNA-recorder readout of cleavage of the substrate (dimensionless); higher = more cleavage of the substrate by the protease variant
# Settings: temperature: 34 °C; time window: 0-4 h after rhamnose induction
# Description: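 In vivo DNA recorder in E. coli TOP10(DE3) ΔrhaA at 34 °C. Each TEVp single-site mutant (parent TEVp 0) is paired with a single-site variant of the 7-mer TEVs (canonical ENLYFQ|S). The substrate sits between flexible linkers in a Bxb1-sfGFP-TEVs-SsrA fusion, so cleavage stabilises Bxb1 and speeds flipping of a recombination array, read by NGS. The value is the raw area under the fraction-flipped curve over 0-4 h after rhamnose induction (AUC4h), with ≥20 reads per time point. It is not background-subtracted; inactive controls average about 0.047.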
# 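Also: Bxb1 expression induced with 0.2% (w/v) L-rhamnose at OD600 near 0.5, cultures sampled hourly, flipped fraction per protease–substrate barcode pair counted by paired-end Illumina sequencing.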
Variant,area with substrate EALYFQS,area with substrate EELYFQS,area with substrate EHLYFQS,area with substrate EILYFQS,area with substrate EMLYFQS,area with substrate EQLYFQS,area with substrate EVLYFQS,area with substrate ECLYFQS,area with substrate EDLYFQS,area with substrate EFLYFQS,area with substrate ELLYFQS,area with substrate EPLYFQS,area with substrate ESLYFQS,area with substrate EWLYFQS,area with substrate EGLYFQS,area with substrate EKLYFQS,area with substrate ERLYFQS,area with substrate ETLYFQS,area with substrate EYLYFQS
P184R,0.0821,0.0578,0.0685,0.0565,0.117,0.0792,0.0314,–,–,–,–,–,–,–,–,–,–,–,–
P184K,0.0879,–,–,–,–,0.0647,0.0534,0.0736,0.0835,0.0895,0.0392,0.0886,0.0714,0.0755,–,–,–,–,–
P184A,0.101,0.0872,0.081,0.0881,0.0923,0.0962,0.072,0.0812,0.0971,–,0.115,0.0368,0.0998,–,0.0863,0.0999,0.106,0.0808,–
P184Q,0.0992,–,0.0943,0.081,–,0.0918,0.0707,0.0882,0.0907,0.0712,–,–,0.0727,0.0828,0.0682,0.0738,0.0727,–,0.106
T174L,0.149,–,–,0.0918,–,0.11,–,0.09,–,–,–,0.0855,–,–,–,–,0.0555,–,–
T174R,0.141,0.117,0.0839,0.0695,0.101,0.129,0.0726,0.0755,0.117,0.0779,–,–,0.0901,0.0916,0.103,0.0912,–,0.139,–
P222W,0.0994,0.0904,–,0.0817,0.0984,0.0995,0.101,0.0929,0.152,–,0.0807,0.127,0.0808,0.0768,0.0763,0.0857,0.0761,0.109,–
A207M,0.113,0.121,–,0.109,–,0.0986,0.135,0.0885,–,–,–,–,0.0945,0.106,0.0668,0.128,–,–,–
A207S,0.105,0.119,0.0814,0.117,0.121,0.1,0.0939,0.13,0.13,0.0978,0.122,0.105,0.108,–,0.108,0.122,0.104,–,0.101
L191C,0.107,0.0938,0.0677,0.0707,–,0.101,0.0845,0.0829,0.0806,0.0789,0.093,0.106,0.0867,0.0743,0.0841,0.0788,0.0822,–,0.0791
Y179M,0.0622,0.0638,0.048,0.0534,0.0573,–,–,–,–,–,0.0711,–,0.11,0.0631,0.0559,–,0.0308,–,–
G202F,0.0527,–,–,0.06,0.0548,–,0.0462,–,–,–,0.0688,0.0638,0.0555,0.0942,0.057,–,0.0536,0.075,–
G202C,0.0579,–,–,–,–,0.0765,–,–,0.0848,–,–,–,0.0716,–,–,–,0.0545,–,–
H168P,0.0507,0.0466,–,0.0569,0.0669,0.0612,0.0355,0.0576,0.0443,–,–,0.058,0.06,0.0518,0.0485,–,0.0531,–,0.0694
H168T,0.0614,0.0606,0.0562,0.0516,0.0598,0.0613,–,0.0591,0.059,–,0.06,0.0655,0.0324,0.104,0.0544,0.0634,0.0435,0.0628,0.0477
W212E,0.0901,–,0.0902,0.0663,0.081,0.0535,0.0602,0.0772,–,–,0.101,0.0984,0.0764,0.11,0.0628,–,0.0448,–,0.0835
W212V,0.124,0.145,0.087,0.119,0.129,0.133,0.102,0.11,0.138,0.122,0.149,–,0.115,0.104,0.0834,0.134,0.158,–,–
F187P,0.0657,0.0591,0.0594,0.0474,0.049,0.0657,0.0838,0.0501,–,–,–,0.0586,0.0514,0.0521,0.0402,0.0562,0.0568,0.0565,–
K216V,0.134,0.112,–,–,–,0.143,0.093,0.11,0.114,–,0.0951,–,0.0904,–,–,0.109,0.115,0.0966,0.153
K216T,0.116,0.0907,–,0.0691,–,0.105,0.0992,–,–,0.097,–,0.117,0.0846,–,0.0805,0.109,0.0955,0.107,0.0944
M219A,0.0788,–,0.11,0.0817,0.102,0.122,0.0875,0.0899,–,0.0931,0.0894,0.116,0.0875,0.108,–,0.115,0.0665,0.138,0.115
T176E,0.0886,0.0827,0.0559,0.0633,–,0.0804,0.0835,0.0867,0.107,0.0773,–,–,0.073,0.0753,–,0.0656,0.08,0.0776,0.0872
T176H,0.0664,0.0755,0.0659,0.0591,0.0388,–,–,–,–,–,0.0585,0.088,0.0686,–,–,–,0.0637,–,–
T176G,0.0669,–,–,0.0406,0.0754,0.0674,0.0838,0.0674,0.0704,–,–,–,0.0583,0.0804,0.0467,–,–,–,–
Q194G,0.118,0.0894,0.121,0.114,0.134,–,0.108,0.123,0.145,0.121,0.0943,0.113,0.106,0.0941,0.12,0.116,0.107,0.0933,0.107
V200F,0.0685,–,–,–,0.0823,–,0.0318,–,–,–,–,–,–,–,0.0752,0.0787,–,0.0465,–
V200C,0.0878,–,0.0671,0.075,0.0962,0.0959,0.0771,0.0948,–,0.0741,0.0745,0.102,0.0786,0.0839,0.083,–,0.0843,–,0.0801
